Laboratory results reported in PubChem BioAssay AID1745853 (National Center for Advancing Translational Sciences (NCATS), 2022).
The list shows a part of the results. Further columns of the screen follow, without active or inactive calls.

Assays:
Assay in all cases: Primary Screen for Target Class Profiling of Small Molecule Inhibitors of Methyltransferases
[1] = molecular target: Glycine N-methyltransferase (Homo sapiens) (UniProt Q14749); conditions: purified enzyme, MTase-Glo SAH luminescence; measured here: GNMT inhibition; at 40 µM; stronger effect = lower value
How it was run: (§1)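 Each enzyme was reacted with SAM and its substrate, with compounds tested once at 40 uM; SAH formed was read by MTase-Glo luminescence.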

[2] = molecular target: Guanidinoacetate N-methyltransferase (Homo sapiens) (UniProt Q14353); conditions: purified enzyme, MTase-Glo SAH luminescence; measured here: GAMT inhibition; at 40 µM; stronger effect = lower value
How it was run: as §1

[3] = molecular target: Histamine N-methyltransferase (Homo sapiens) (UniProt P50135); conditions: purified enzyme, MTase-Glo SAH luminescence; measured here: HNMT inhibition; at 40 µM; stronger effect = lower value
How it was run: as §1

[4] = molecular target: Nicotinamide N-methyltransferase (Homo sapiens) (UniProt P40261); conditions: purified enzyme, MTase-Glo SAH luminescence; measured here: NNMT inhibition; at 40 µM; stronger effect = lower value
How it was run: as §1

[5] = molecular target: Phenylethanolamine N-methyltransferase (Homo sapiens) (UniProt P11086); conditions: purified enzyme, MTase-Glo SAH luminescence; measured here: PNMT inhibition; at 40 µM; stronger effect = lower value
How it was run: as §1
On the % scale 0 is the no-effect control and ±100 the full control effect.

| SMILES | activity change, negative = inhibition [1] [%] | activity change, negative = inhibition [2] [%] | activity change, negative = inhibition [3] [%] | activity change, negative = inhibition [4] [%] | activity change, negative = inhibition [5] [%] |
| --- | --- | --- | --- | --- | --- |
| CN(C)CCNC(=O)c1cc2n(n1)CC(C)(C(=O)NCc1ccccc1)N(C)C2=O (configuration not stated) | 4.37 | 3.91 | 3.65 | -2.14 | -1.67 |
| CCOC(=O)C(CCc1ccccc1)NC1CSC(c2cccs2)CN(CC(=O)O)C1=O (configuration not stated) | -12.3 |  | 3.83 |  |  |
| CCCCCCN(CCCCCC)C(=O)Cc1c(-c2ccc(F)cc2)[nH]c2ccccc12 | -14.2 | 5.01 | -0.505 | -9.94 | 1.12 |
| CCN(CC)CCNC(=O)c1ccc(NC(C)=O)cc1 | 7.81 | 6.62 | 8.48 | -10.4 | 2.25 |
| O=C(CCn1ccc2cc(S(=O)(=O)N3CCCCC3)ccc21)NCc1ccc(F)cc1 | 6.49 | 5.26 | 7.33 | 4.98 | 2.23 |
| N[C@@H](Cc1cnc[nH]1)C(=O)O | 8.99 | 14 | 13.5 | -3.17 | 2.78 |
| CC1(C(=O)NC2CCCCCC2)Cn2c(nc3ccccc32)C(=O)N1C1CCCCCC1 (configuration not stated) | -3.45 | 0 | 2.79 | 4.88 | -1.02 |
| CN(Cc1cccc(OC(F)(F)F)c1)C(=O)C1(c2ccc(Cl)cc2)CCOCC1 | -7.5 | -5.66 | -4.77 | -20.2 | -5.37 |
| Cc1ccc(CCN2C(=O)c3cc4ccccc4n3CC2(C)C(=O)NCCC(C)C)cc1 (configuration not stated) | 9.05 | 4.41 | 9.65 | 10.1 | 3.29 |
| CN1CC2(CCN(C(=O)c3cccn3C)CC2)CC(c2ccccc2)C1=O (configuration not stated) | -4.35 | -3.87 | -1.42 | -3.9 | 12.7 |
| CCOc1ccc(CCN2C(=O)c3ccc(-c4ccccc4)n3CC2(C)C(=O)NC2CCCC2)cc1 (configuration not stated) | 4.07 | 0.258 | 7.4 | 5.55 | 3.65 |
| O=C(c1n[nH]c2ccccc12)N1CCC(Cc2nc(-c3ccncc3)n[nH]2)CC1 | -8.34 | -5.53 | -1.03 | -12.7 | 5.33 |
| CC(C)Cn1c(=O)c2ccc(C(=O)NC3CCCC3)cc2n2c(=O)n(CC(=O)c3ccccc3)nc12 | 3.58 | 0 | 5.88 | 4.14 | 4.37 |
| CNC(=O)c1cccc(-c2cnc(Nc3ccc(Cl)cn3)c3c2CCO3)c1 | -15.1 | -11.8 | -10.7 | -19.7 | -0.449 |
| Cc1ccccc1S(=O)(=O)N1CCCC2(C1)Nc1cccnc1NC2=NC1CCCC1 (configuration not stated) | -5.05 | -4.59 | -8.24 | -33.6 | -3.46 |
| CC(NC(=O)CN1C(=O)NC2(CCS(=O)(=O)CC2)C1=O)c1ccccc1 (configuration not stated) | -0.012 | -1.01 | 1.28 | -0.448 | 2.96 |
| C[C@@H]1CN(c2ccc(C(=O)N3CCC(N4CCOCC4)CC3)cn2)C[C@H](C)O1 | -2.28 | -7.07 | -0.76 | -3.17 | 1.92 |
| O=[S+]([O-])(c1ccccc1)N1CC(Oc2ccc(F)c(F)c2)C1 | -6.32 | -8.81 | -1.73 | -24.3 | -15.3 |
| O=C(CCCc1nnc2n3nc(-c4ccccc4)nc3c3ccccc3n12)NC1CCN(Cc2ccccc2)CC1 | -0.541 | 0.422 | -20.4 | 9.36 | -0.202 |

| SMILES | activity change, negative = inhibition [1] [%] | activity change, negative = inhibition [2] [%] | activity change, negative = inhibition [3] [%] | activity change, negative = inhibition [4] [%] | activity change, negative = inhibition [5] [%] |
| --- | --- | --- | --- | --- | --- |
| C=C(CO[C@@H]1O[C@H](CO[C@@H]2OC[C@](O)(CO)[C@H]2O)[C@@H](O)[C@H](O)[C@H]1O)C1Cc2cc(C(C)=O)ccc2O1 (some centres not stated) | 1 | -1.33 | 3.88 | -10.2 | 3.18 |
| Cc1ccc(Cn2c(=O)c3ccc(C(=O)NCC(C)C)cc3n3c(=O)n(CC(N)=O)nc23)cc1 | 4.33 | 0 | 7 | 3.97 | 4.36 |
| CN=C(NC#N)NCCSCc1nc[nH]c1C | -3.53 | 5.42 | 1.27 | -5.01 | 6.78 |
| COc1ccc(N2C(=O)c3ccc(-c4ccco4)n3CC2(C)C(=O)NCc2ccc(Cl)cc2)cc1OC (configuration not stated) | -21 | 1.75 | -5.75 | -4.69 | -2.29 |
| C=C1CC2OC(=O)C(COC)C2C(OC(=O)/C(C)=C\C)CC2(C)OC1=CC2=O (configuration not stated) | -1.42 | -3.86 | 7.96 | -15.3 | 4.95 |
| Cn1ccc(C(=O)NCc2nnc3n2C(C(=O)NCCc2ccc(Cl)cc2)CC3)n1 (configuration not stated) | -7.68 | -4.51 | -5.64 | -9.03 | 6.04 |
| O=C(N[C@H]1CCC[C@H](CO)C1)C1CCN(c2nc3cc(Cl)c(-c4ccc(Cl)cc4)cc3o2)CC1 | -4.19 | 5.91 | 5.08 | -14.6 | 1.44 |
| Cc1ccc(Cn2c(=O)c3ccccc3n3c(=O)n(CC(=O)Nc4ccc5c(c4)OCO5)nc23)cc1 | 2.52 | 3.95 | 5.13 | 0.827 | 0.114 |
| CC(C)CCn1c(=O)c2ccc(C(=O)NC(C)C)cc2n2c(=O)n(Cc3ccc(F)cc3Cl)nc12 | -0.642 | 0 | 10.8 | -5.33 | -2.96 |
| CCC(C)NC(=O)c1ccc2c(=O)n(C)c3nn(CC(=O)Nc4ccccc4F)c(=O)n3c2c1 (configuration not stated) | 5.91 | 0.41 | 10.9 | -0.028 | 3.31 |
| Cc1ccc(Cn2c(=O)c3ccccc3n3c(CCC(=O)N4CCC(C)CC4)nnc23)cc1 | -1.01 | 0 | 3.6 | -2.77 | -7.15 |
| COc1c[nH]c(CN2CCN(C)C3(CCC(=O)N(C)CC3)C2)cc1=O (configuration not stated) | 1.65 | 1.47 | 2.45 | 1.25 | 4.72 |
| OCc1ccc(-c2ccc(-c3ccc(CO)s3)o2)s1 | -6.34 | -5.78 | 6.92 | -9.19 | -0.532 |
| CC1=NS(=O)(=O)N(C)C=C1C(=O)OCc1noc(-c2ccco2)n1 | -5.97 | -7.5 | -2.7 | -9.06 | -1.85 |
| CC1CCN(CCCNC(=O)C2CCc3sc(C(=O)N4CCCC4)cc3C2)CC1 (configuration not stated) | -2 | -1.17 | -53.6 | -7.58 | -5.51 |
| CNc1nc(Nc2ccc(C(=O)N3CCOCC3)cc2OC)nc2[nH]cc(Cl)c12 | -6.07 | -6.2 | 6.93 | -11.4 | 2.12 |
| COc1ccc2c(c1)CCN=C2C[C@H]1CN(C(=O)c2ccc(F)cc2)CC[C@H]1CC(=O)O | -6.24 | -19.5 | -2.46 | -18.3 | -2.67 |
| O=C(C1CCCN([S+](=O)([O-])c2cccc(C(F)(F)F)c2)C1)N1CCC(c2nc3ncccc3[nH]2)C1 (configuration not stated) | -8.49 | -4.78 | -3.94 | -19.1 | 10.1 |
| COc1cccc(CN2C(=O)c3cc4sccc4n3CC2(C)C(=O)NC2CCCCCC2)c1 (configuration not stated) | -5.68 | 3.15 | -3.75 | -17.2 | -9.47 |
